The other results are listed elsewhere or left out. The full chains were built here from the parent and the listed change. Inactive controls read about 0.05.
B1: TEV protease; numbered along this chain (parent)
chain: MGESLFKGPRDYNPISSSICHLTNESDGHTTSLYGIGFGPFIITNKHLFRRNNGTLVVQSLHGVFKVKDTTTLQQHLVDGRDMIIIRMPKDFPPFPQKLKFREPQREERICLVTTNFQTKSMSSMVSDTSCTFPSGDGIFWKHWIQTKDGQCGSPLVSTRDGFIVGIHSASNFTNTNNYFTSVPKNFMELLTNQEAQQWVSGWRLNADSVLWGGHKVFMVKPEEPFQPVKEATQL

Variants of: B1
Experiment: raw area under fraction-flipped curve 0-4 h after induction (AUC4h, not background-subtracted), DNA-recorder readout of cleavage of the substrate (dimensionless); higher = more cleavage of the substrate by the protease variant
Conditions: temperature: 34 °C; time window: 0-4 h after rhamnose induction
Protocol: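 In vivo DNA recorder in E. coli TOP10(DE3) ΔrhaA at 34 °C. Each TEVp single-site mutant (parent TEVp 0) is paired with a single-site variant of the 7-mer TEVs (canonical ENLYFQ|S). The substrate sits between flexible linkers in a Bxb1-sfGFP-TEVs-SsrA fusion, so cleavage stabilises Bxb1 and speeds flipping of a recombination array, read by NGS. The value is the raw area under the fraction-flipped curve over 0-4 h after rhamnose induction (AUC4h), with ≥20 reads per time point. It is not background-subtracted; inactive controls average about 0.047.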
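Note: Bxb1 expression induced with 0.2% (w/v) L-rhamnose at OD600 near 0.5, cultures sampled hourly, flipped fraction per protease–substrate barcode pair counted by paired-end Illumina sequencing.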

Variant | area with substrate EALYFQS | area with substrate EDLYFQS | area with substrate EELYFQS | area with substrate EGLYFQS | area with substrate EKLYFQS | area with substrate ELLYFQS | area with substrate ERLYFQS | area with substrate ESLYFQS | area with substrate EYLYFQS | area with substrate ECLYFQS | area with substrate EHLYFQS | area with substrate EILYFQS | area with substrate EMLYFQS | area with substrate EPLYFQS | area with substrate EQLYFQS | area with substrate ETLYFQS | area with substrate EVLYFQS | area with substrate EFLYFQS | area with substrate EWLYFQS
MGESLFKGPRDYNPISSSICHLTNESDGHTTSLYGIGFGPFIITNKHLFRRNNGTLVVQSLHGVFKVKDTTTLQQHLVDGRDMIIIRMPKDFPPFPIKLKFREPQREERICLVTTNFQTKSMSSMVSDTSCTFPSGDGIFWKHWIQTKDGQCGSPLVSTRDGFIVGIHSASNFTNTNNYFTSVPKNFMELLTNQEAQQWVSGWRLNADSVLWGGHKVFMVKPEEPFQPVKEATQL [Q97I] | 0.121 | 0.101 | 0.137 | 0.0848 | 0.105 | 0.133 | 0.0868 | 0.109 | 0.0937 |  |  |  |  |  |  |  |  |  | 
MGESLFKGPRDYNPISSSICHLTNESDGHTTSLYGIGFGPFIITNKHLFRRNNGTLVVQSLHGVFKVKDTTTLQQHLVDGRDMIIIRMPKDFPPFPQKLSFREPQREERICLVTTNFQTKSMSSMVSDTSCTFPSGDGIFWKHWIQTKDGQCGSPLVSTRDGFIVGIHSASNFTNTNNYFTSVPKNFMELLTNQEAQQWVSGWRLNADSVLWGGHKVFMVKPEEPFQPVKEATQL [K100S] | 0.11 | 0.152 |  |  | 0.113 |  |  | 0.0973 |  | 0.117 | 0.12 | 0.0745 | 0.108 | 0.115 | 0.129 | 0.106 | 0.0932 |  | 
MGESLFKGPRDYNPISSSICHLTNESDGHTTSLYGIGFGPFIITNKHLFRRNNGTLVVQSLHGVFKVKDTTTLQQHLVDGRDMIIIRMPKDFPPFPQKLKFDEPQREERICLVTTNFQTKSMSSMVSDTSCTFPSGDGIFWKHWIQTKDGQCGSPLVSTRDGFIVGIHSASNFTNTNNYFTSVPKNFMELLTNQEAQQWVSGWRLNADSVLWGGHKVFMVKPEEPFQPVKEATQL [R102D] | 0.0517 | 0.0462 |  | 0.0633 |  |  | 0.0686 | 0.0535 |  |  | 0.131 |  | 0.0527 |  | 0.0502 | 0.0474 |  |  | 
MGESLFKGPRDYNPISSSICHLTNESDGHTTSLYGIGFGPFIITNKHLFRRNNGTLVVQSLHGVFKVKDTTTLQQHLVDGRDMIIIRMPKDFPPFPQKLKFQEPQREERICLVTTNFQTKSMSSMVSDTSCTFPSGDGIFWKHWIQTKDGQCGSPLVSTRDGFIVGIHSASNFTNTNNYFTSVPKNFMELLTNQEAQQWVSGWRLNADSVLWGGHKVFMVKPEEPFQPVKEATQL [R102Q] | 0.0508 | 0.0659 |  |  |  |  | 0.0491 | 0.0695 | 0.0532 | 0.0591 | 0.0635 | 0.0441 |  | 0.0689 | 0.0399 |  |  |  | 
MGESLFKGPRDYNPISSSICHLTNESDGHTTSLYGIGFGPFIITNKHLFRRNNGTLVVQSLHGVFKVKDTTTLQQHLVDGRDMIIIRMPKDFPPFPQKLKFWEPQREERICLVTTNFQTKSMSSMVSDTSCTFPSGDGIFWKHWIQTKDGQCGSPLVSTRDGFIVGIHSASNFTNTNNYFTSVPKNFMELLTNQEAQQWVSGWRLNADSVLWGGHKVFMVKPEEPFQPVKEATQL [R102W] | 0.0427 | 0.0409 | 0.0342 | 0.0376 | 0.0263 |  | 0.0593 | 0.0578 |  |  | 0.0553 | 0.0483 | 0.0598 | 0.0608 | 0.0501 | 0.0425 | 0.0559 | 0.0498 | 
MGESLFKGPRDYNPISSSICHLTNESDGHTTSLYGIGFGPFIITNKHLFRRNNGTLVVQSLHGVFKVKDTTTLQQHLVDGRDMIIIRMPKDFPPFPQKLKFRWPQREERICLVTTNFQTKSMSSMVSDTSCTFPSGDGIFWKHWIQTKDGQCGSPLVSTRDGFIVGIHSASNFTNTNNYFTSVPKNFMELLTNQEAQQWVSGWRLNADSVLWGGHKVFMVKPEEPFQPVKEATQL [E103W] | 0.081 | 0.0908 | 0.0851 | 0.0754 | 0.0835 | 0.0963 | 0.0785 | 0.0762 |  | 0.085 | 0.0543 | 0.0731 | 0.0907 |  | 0.0922 |  | 0.0602 | 0.0582 | 0.074
MGESLFKGPRDYNPISSSICHLTNESDGHTTSLYGIGFGPFIITNKHLFRRNNGTLVVQSLHGVFKVKDTTTLQQHLVDGRDMIIIRMPKDFPPFPQKLKFREPAREERICLVTTNFQTKSMSSMVSDTSCTFPSGDGIFWKHWIQTKDGQCGSPLVSTRDGFIVGIHSASNFTNTNNYFTSVPKNFMELLTNQEAQQWVSGWRLNADSVLWGGHKVFMVKPEEPFQPVKEATQL [Q105A] | 0.0846 | 0.119 | 0.115 |  | 0.088 | 0.0449 | 0.104 | 0.101 | 0.119 | 0.108 |  | 0.0936 | 0.133 | 0 | 0.11 |  | 0.0777 | 0.13 | 
MGESLFKGPRDYNPISSSICHLTNESDGHTTSLYGIGFGPFIITNKHLFRRNNGTLVVQSLHGVFKVKDTTTLQQHLVDGRDMIIIRMPKDFPPFPQKLKFREPGREERICLVTTNFQTKSMSSMVSDTSCTFPSGDGIFWKHWIQTKDGQCGSPLVSTRDGFIVGIHSASNFTNTNNYFTSVPKNFMELLTNQEAQQWVSGWRLNADSVLWGGHKVFMVKPEEPFQPVKEATQL [Q105G] | 0.0959 |  | 0.0952 | 0.108 | 0.097 |  | 0.102 | 0.095 |  | 0.0919 |  | 0.0875 | 0.11 | 0.0825 | 0.129 |  | 0.0795 | 0.0984 | 
MGESLFKGPRDYNPISSSICHLTNESDGHTTSLYGIGFGPFIITNKHLFRRNNGTLVVQSLHGVFKVKDTTTLQQHLVDGRDMIIIRMPKDFPPFPQKLKFREPQHEERICLVTTNFQTKSMSSMVSDTSCTFPSGDGIFWKHWIQTKDGQCGSPLVSTRDGFIVGIHSASNFTNTNNYFTSVPKNFMELLTNQEAQQWVSGWRLNADSVLWGGHKVFMVKPEEPFQPVKEATQL [R106H] | 0.11 | 0.11 | 0.119 | 0.0772 | 0.143 | 0.0914 | 0.108 | 0.0776 | 0.099 | 0.0938 | 0.0965 | 0.0862 | 0.0849 |  | 0.117 | 0.106 | 0.0904 |  | 0.11
